Whole data set: some 33,000 sequences, median “E-score (-0.5 to 0.5)” near -0.012, cut for the highest 2% near 0.27. The list shows a part of the results.
The sequences below were run against T1, Vhr1 (UniProt P40522) (assay: PBM E-score (8-mer binding enrichment) (E-score (-0.5 to 0.5)); higher = stronger / more preferred TF binding; most listed sequences are background and not binding sites). Conditions: protein concentration: 200 nM; construct: GST-full length.
T1 sequence: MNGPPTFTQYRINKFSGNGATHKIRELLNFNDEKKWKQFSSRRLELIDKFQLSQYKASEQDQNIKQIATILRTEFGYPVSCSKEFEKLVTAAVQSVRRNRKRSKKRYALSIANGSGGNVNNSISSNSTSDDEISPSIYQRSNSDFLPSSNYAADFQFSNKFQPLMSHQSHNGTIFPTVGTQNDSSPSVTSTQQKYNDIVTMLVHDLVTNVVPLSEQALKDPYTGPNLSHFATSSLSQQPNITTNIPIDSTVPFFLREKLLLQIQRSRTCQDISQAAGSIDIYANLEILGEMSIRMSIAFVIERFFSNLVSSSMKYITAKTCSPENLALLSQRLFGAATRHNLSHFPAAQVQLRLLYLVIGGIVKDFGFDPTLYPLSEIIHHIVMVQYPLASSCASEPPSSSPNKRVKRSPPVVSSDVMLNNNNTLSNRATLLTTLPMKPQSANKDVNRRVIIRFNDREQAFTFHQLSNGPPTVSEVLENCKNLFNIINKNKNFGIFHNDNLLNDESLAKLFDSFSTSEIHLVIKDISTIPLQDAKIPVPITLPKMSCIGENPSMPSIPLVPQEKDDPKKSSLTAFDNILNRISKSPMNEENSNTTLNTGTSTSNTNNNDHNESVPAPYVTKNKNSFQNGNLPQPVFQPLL
Outline: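 Yeast transcription factors, full-length or as DNA-binding domains, were expressed with a GST tag using PURExpress in vitro transcription/translation. At about 100-200 nM they were applied to universal all-10-mer Agilent arrays, double-stranded by primer extension on fresh or once-stripped slides. Fluorescent anti-GST detected bound protein, and masliner normalised the scans. E-scores for ungapped eight-base words, pooled with reverse complements, came from the Universal PBM Analysis Suite.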

Sequence | PBM E-score
AACGTTTC | -0.246
CAGTAAAG | -0.0186
GGACGACA | 0.203
CGCAGAAA | -0.268
GGTAGTGA | 0.159
AATGAGAG | -0.17
AACACTGT | 0.0656
ATTGGCCC | -0.193
CCGCGGAC | 0.121
AACTTAAA | -0.221
ATACTACA | 0.258
CACCAGCG | 0.163
GTGGATTA | -0.0316
AGCAGGAC | 0.119
CACTCAGA | 0.12
AAACTGAG | -0.123
AACGATCA | -0.0499
CAGTTAGC | -0.178
GTGGCCGA | -0.124
AAACTCGT | -0.0145
CCCTTCAA | -0.206
ACTCGAGC | 0.0233
TAGGAGAA | -0.139
AAATCGGT | -0.194
AGTATTTC | 0.0255

Sequence | PBM E-score
GATTCTCC | 0.142
TATGTGGA | 0.123
ATGACCGG | -0.132
CCCCTGAC | 0.192
CAGTGGTA | -0.0246
CCCCGAAC | -0.0793
AAGACAGT | 0.0669
AGTAGAAG | -0.159
ACAGGGGC | 0.0421
ACTAGGAT | -0.114
CCCGTACC | 0.0244
GCACCCAC | 0.211
AATCTGGG | -0.076
ATAAGCGG | 0.0189
AAGGGGAA | -0.312
AGCTAGGA | 0.117
AACAGACT | 0.0598
CCTGTCGA | -0.12
CTGGTAAC | 0.0684
ACCATCCC | 0.054
CTTCCCTA | -0.379
ACTCCAAA | 0.0882
AGTTGCCA | -0.126
TGCGAACA | 0.0704
GGGGAAGA | -0.0811

Sequence | PBM E-score
ATCGCTAG | 0.0291
AAAATGAG | -0.0698
CACAGGGG | 0.065
CACTGTGC | 0.168
AATGACGG | 0.164
CAAGTACC | -0.0803
ACGGAGTG | 0.00137
AGCGCCAT | -0.0845
AGATCCCT | -0.142
AACTCTAG | -0.11
AGGTCGGC | -0.0151
CTCCTCGC | -0.138
AGCCGCTC | -0.226
ATATGCGG | 0.0512
CTGCTAAC | -0.116
ACCACACC | 0.151
AAGGAGGT | -0.229
GGGACCCC | -0.157
AGCCGCTG | -0.0556
ACCCGTGA | 0.128
CACCTTCA | -0.066
CACTTGCA | 0.138
CAAGGCGA | 0.00863
GGTGAGAA | -0.0655
ACTCGATC | 0.142

Sequence | PBM E-score
ACTGTGAA | -0.0314
ATGCTATC | 0.0928
CTAAGTGA | 0.044
CAGTTACG | -0.125
TCCAGAAA | -0.0568
ACATTGAG | 0.0142
GACTTAGA | -0.203
CACCCTTC | 0.0327
TTACATAA | 0.138
TCCGCGGA | -0.0458
CAACAAAA | -0.114
CTCCGGAG | 0.161
ACTCTATG | 0.0905
ACGGTCAG | -0.131
AGGAAACG | -0.174
CCCGTAAC | -0.118
TGAGGCAA | -0.0116
AGCAGTAA | 0.116
AGTCAAAT | 0.128
ATGATAGG | 0.0955
AGGGTCCA | -0.172
GCATACGC | -0.219
CCTCGCAA | -0.00415
GCGCGCCA | 0.149
ACATCTAA | -0.0475

Sequence | PBM E-score
AACCCTCG | -0.0706
GTGGTTTA | 0.00241
CAGAGCGA | -0.0311
TTATTCAA | -0.166
AGGGGCGA | 0.113
CGACCCAA | 0.14
GAATTGTC | -0.136
ATCTGAGG | 0.0534
CTCCCGCC | 0.0303
AGCAGAGG | -0.172
ACGTTCTC | -0.191
ATACCCGA | 0.149
AGAGTAGG | -0.0248
ACTCTTGC | -0.0506
CGCTTCAC | -0.111
GGGGAACA | 0.0388
ATGGTTGC | 0.0579
ATGACGTA | -0.0698
CAAGAACG | -0.0604
ATGTTTTC | -0.0358
ATCAAATA | 0.0347
GATGTGCA | 0.123
GCAGCGAA | -0.00828
ATTCTAGG | -0.132
AGGAACAG | -0.125

Sequence | PBM E-score
CTACAGAC | 0.0374
ATCCTAAT | -0.0253
ACCCAGCA | 0.0926
ATCATCTA | 0.15
CCTTGTTC | -0.186
CACCCAGA | 0.0926
CATTGGCG | 0.00375
ATAGTGAC | 0.138
CGCCGCGC | 0.101
TATCGCAA | 0.144
CAGAAGCC | -0.0916
GAGTGAAC | -0.0149
GGAGACAC | 0.163
CACTATAC | 0.042
AATGTGTA | 0.133
AGGGACGG | -0.144
ATACCTGC | -0.0926
ATCGTAAT | 0.176
CCATTCAA | 0.0103
AGCTAATG | -0.0907
CGAGACAA | -0.019
ACTTAACA | -0.0397
AGCTCACG | -0.0664
ACAAAGCA | -0.0014
CGCTACAC | 0.0775

Sequence | PBM E-score
GCAGCGCA | -0.0741
CTTTATCA | -0.157
ATACAAGG | -0.0891
ATGCATCA | 0.27
AAACGCCC | -0.081
CACAACTC | 0.159
CAAACAAG | 0.00087
GCATCTCA | -0.00305
AATGTCAG | 0.0179
CAAAGATC | -0.141
ACTCTCTA | -0.108
GCCGACGC | 0.0232
CCTAGGCC | -0.171
CAAAGGGG | 0.0159
AGATTCAG | -0.0576
AGCCAGCG | 0.138
CGGAGTGA | 0.216
ACTCTCCT | -0.036
ACAGCATA | 0.0587
AGTTTACC | -0.117
ACCGGCAA | -0.0698
GACGACAC | 0.183

— the supplement of paper PMC3334620
